The target of assay [1] is T1, RAE1 (human (endogenous in primary keratinocytes)) (UniProt P78406).
T1 sequence: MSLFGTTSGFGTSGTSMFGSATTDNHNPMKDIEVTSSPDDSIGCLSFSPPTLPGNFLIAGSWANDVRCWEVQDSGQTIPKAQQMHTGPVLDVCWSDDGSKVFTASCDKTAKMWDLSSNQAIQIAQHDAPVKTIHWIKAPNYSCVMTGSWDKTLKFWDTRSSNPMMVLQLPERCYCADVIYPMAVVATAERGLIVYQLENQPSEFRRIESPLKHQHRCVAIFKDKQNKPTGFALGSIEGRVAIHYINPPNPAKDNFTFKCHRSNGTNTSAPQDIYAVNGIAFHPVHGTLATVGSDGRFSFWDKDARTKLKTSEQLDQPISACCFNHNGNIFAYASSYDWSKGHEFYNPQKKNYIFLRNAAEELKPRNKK
As to the kind of experiment: co-IP; nuclear extract of undifferentiated keratinocytes (50 mM Tris pH 8, 0.05% NP-40, 10% glycerol, 2 mM MgCl2, 250 mM NaCl); NUP98 or RAE1 antibody or mouse IgG control on protein G beads, overnight at 4 °C; also with or without RNase A (50 ug/mL, 20 min, 30 °C); blots for NUP98, RAE1, TPR and with mAb414.

Sequences of proteins named here, by UniProt entry; tags and fusion partners are left off. Residues count along the entry.
UniProt P52948, residues 1-880: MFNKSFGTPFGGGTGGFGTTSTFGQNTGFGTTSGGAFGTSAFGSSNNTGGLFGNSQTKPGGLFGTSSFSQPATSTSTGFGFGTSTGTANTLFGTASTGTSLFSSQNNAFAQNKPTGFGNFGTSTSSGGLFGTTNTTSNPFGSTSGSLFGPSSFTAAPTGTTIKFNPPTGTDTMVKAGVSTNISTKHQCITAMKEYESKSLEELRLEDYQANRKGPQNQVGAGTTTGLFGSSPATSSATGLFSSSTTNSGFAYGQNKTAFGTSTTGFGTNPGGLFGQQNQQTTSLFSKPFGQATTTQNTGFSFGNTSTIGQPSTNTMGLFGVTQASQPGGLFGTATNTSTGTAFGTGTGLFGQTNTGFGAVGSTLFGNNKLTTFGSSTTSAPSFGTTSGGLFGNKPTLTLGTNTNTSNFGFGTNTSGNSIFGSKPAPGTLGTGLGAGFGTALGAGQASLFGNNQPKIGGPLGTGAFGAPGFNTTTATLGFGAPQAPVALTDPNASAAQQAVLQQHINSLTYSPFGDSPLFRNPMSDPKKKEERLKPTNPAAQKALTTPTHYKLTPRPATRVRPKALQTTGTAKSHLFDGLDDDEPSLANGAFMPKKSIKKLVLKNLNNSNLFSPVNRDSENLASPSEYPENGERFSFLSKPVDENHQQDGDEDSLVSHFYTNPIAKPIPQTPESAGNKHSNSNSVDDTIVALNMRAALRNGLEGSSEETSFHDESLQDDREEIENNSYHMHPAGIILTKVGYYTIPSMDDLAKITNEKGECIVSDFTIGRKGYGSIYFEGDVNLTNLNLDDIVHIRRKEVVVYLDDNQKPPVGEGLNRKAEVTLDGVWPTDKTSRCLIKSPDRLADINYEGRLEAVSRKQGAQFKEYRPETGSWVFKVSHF
UniProt P12270: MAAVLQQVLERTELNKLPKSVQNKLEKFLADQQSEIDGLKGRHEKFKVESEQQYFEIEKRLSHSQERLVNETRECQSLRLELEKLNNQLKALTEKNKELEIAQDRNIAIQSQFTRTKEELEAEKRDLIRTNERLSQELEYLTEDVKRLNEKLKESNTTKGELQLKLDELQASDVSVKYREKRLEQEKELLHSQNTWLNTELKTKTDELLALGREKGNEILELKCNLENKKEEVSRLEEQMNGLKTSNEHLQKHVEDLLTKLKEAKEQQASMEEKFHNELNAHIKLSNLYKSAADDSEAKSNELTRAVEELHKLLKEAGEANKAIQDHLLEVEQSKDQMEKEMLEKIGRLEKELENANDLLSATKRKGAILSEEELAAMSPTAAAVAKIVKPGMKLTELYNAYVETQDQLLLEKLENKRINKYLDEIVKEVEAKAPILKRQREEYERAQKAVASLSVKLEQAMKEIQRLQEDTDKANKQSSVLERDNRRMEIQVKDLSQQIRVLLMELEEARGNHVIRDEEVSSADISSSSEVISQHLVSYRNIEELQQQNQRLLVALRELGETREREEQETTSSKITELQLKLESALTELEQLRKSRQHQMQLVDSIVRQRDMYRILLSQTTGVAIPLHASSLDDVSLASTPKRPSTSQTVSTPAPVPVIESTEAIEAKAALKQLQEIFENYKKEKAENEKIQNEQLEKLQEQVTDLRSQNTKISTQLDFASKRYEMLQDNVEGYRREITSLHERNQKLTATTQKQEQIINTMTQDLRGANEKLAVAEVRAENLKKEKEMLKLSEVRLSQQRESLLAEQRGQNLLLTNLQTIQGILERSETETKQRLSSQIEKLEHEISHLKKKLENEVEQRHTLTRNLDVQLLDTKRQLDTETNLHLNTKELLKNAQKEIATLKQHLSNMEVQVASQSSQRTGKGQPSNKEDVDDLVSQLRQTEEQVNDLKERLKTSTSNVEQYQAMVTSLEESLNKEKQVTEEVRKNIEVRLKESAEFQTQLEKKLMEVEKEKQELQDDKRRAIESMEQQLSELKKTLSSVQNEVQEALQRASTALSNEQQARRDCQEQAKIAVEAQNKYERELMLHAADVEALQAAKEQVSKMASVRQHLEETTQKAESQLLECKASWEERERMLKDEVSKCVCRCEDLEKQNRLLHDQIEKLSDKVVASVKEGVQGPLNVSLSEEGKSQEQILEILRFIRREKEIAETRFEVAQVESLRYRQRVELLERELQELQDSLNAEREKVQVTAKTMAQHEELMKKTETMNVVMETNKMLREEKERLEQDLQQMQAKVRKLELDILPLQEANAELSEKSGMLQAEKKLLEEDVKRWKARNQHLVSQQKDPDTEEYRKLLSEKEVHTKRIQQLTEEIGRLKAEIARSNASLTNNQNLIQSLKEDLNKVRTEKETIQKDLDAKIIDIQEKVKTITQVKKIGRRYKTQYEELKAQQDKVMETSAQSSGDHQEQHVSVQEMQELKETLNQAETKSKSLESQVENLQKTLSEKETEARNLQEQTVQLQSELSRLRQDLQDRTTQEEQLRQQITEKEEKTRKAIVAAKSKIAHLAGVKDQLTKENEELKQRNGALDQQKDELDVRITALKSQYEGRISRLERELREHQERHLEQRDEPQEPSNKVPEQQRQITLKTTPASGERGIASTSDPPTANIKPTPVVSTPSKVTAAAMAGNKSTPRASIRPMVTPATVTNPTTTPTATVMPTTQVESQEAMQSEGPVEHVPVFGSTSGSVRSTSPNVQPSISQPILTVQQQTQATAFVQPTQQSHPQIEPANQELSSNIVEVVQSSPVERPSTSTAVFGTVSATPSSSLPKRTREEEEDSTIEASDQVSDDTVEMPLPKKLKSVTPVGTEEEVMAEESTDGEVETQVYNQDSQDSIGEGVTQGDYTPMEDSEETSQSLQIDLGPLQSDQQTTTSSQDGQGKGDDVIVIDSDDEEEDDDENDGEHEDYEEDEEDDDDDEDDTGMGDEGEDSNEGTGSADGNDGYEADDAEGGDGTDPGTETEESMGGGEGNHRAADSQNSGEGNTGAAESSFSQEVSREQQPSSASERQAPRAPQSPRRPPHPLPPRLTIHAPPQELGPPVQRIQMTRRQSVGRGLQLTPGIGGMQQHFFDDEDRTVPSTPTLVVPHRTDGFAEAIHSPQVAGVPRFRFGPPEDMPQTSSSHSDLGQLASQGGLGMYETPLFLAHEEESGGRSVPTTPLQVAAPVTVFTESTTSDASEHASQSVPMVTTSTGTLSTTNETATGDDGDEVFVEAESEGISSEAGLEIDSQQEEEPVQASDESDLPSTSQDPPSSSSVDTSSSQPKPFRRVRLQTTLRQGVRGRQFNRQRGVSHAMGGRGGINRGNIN
UniProt Q13547: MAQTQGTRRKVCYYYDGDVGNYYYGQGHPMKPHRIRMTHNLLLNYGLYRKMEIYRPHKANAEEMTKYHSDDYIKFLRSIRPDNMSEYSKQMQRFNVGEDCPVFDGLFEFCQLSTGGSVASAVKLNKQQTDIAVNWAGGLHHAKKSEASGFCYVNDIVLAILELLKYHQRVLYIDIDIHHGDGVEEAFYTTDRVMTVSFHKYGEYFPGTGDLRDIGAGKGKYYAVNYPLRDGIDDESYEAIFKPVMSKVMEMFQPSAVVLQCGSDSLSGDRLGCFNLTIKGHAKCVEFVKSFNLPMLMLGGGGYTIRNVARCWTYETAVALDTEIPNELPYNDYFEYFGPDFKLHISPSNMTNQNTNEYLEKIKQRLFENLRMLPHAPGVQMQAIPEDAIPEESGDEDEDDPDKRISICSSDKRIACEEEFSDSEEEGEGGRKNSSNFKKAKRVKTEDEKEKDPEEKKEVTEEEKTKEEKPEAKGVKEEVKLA

In the next assay the target is T2, HA-tagged RAE1 (UniProt P78406).
T2 sequence: T1 sequence
As to the kind of experiment: co-IP; HA-tagged RAE1 expressed in progenitor-state keratinocytes; NUP98 detected in the precipitate (Supplementary Fig. 3a).

The target in assay [2] is T1, RAE1 (human (endogenous in primary keratinocytes)). The experiment in a line: co-IP; crosslinking co-immunoprecipitation: undifferentiated keratinocytes crosslinked with 1% formaldehyde for 10 min, nuclei lysed in PBS with 1% NP-40, 0.5% sodium deoxycholate, 0.1% SDS, 10 mM EDTA, sonicated; NUP98 or RAE1 antibody on protein G beads; blot for HDAC1.
Assay [3] concerns the target NUP98 (human (endogenous in primary keratinocytes)) (UniProt P52948). Described as above.

No constants are given. Whether binding was seen depends on the method and setting. In cells and extracts the contact can be indirect. Some entries that bind do so weakly or less than the wild type. For some assays here: Where a sequence is shown, tags or fusion partners need not be part of it.

As to NUP98 (from UniProt P52948 1-880), the binding entry (in assay [1]; in the assay with HA-tagged RAE1) was “binds” throughout.

On to TPR (from UniProt P12270 1-2363), for which the binding result in assay [1] is “no binding”.

With HDAC1 (from UniProt Q13547 1-482), the binding result in assay [2] and in assay [3] was “binds” in each case.

These data come from PMC10290086.
